Test results from the supplement of paper PMC11417369.
± gives the standard deviation of the averaged measurements. This is one part of the list.

Test system: PfAP2-G AP2 domain (GST-tagged)
Assay: gcPBM binding intensity (ln(normalized median fluorescence intensity)); higher = stronger DNA binding
Procedure, shortened: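 The binding buffer was 1× PBS containing 1% milk, 0.2 mg/ml BSA, 0.5% salmon testes DNA and 0.03% Triton X-100. In it, GST-tagged P. falciparum DNA-binding domains expressed in E. coli were applied for 1 h to an Agilent 4 × 180k array of primer-extended double-stranded 36-bp intergenic genomic probes plus negative controls. Binding intensity, read with Alexa488 anti-GST antibody and a 488 nm scan, is the highest Masliner-normalised natural-log median intensity across replicate spots of either probe orientation.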

Sequence	gcPBM binding intensity (ln)
AAATTTTATTATAGCAGTACAATATAATATTATTAA [XGTACX_site1971]	10.8 ± 0.49
ATATTTAAAGAATAAGTGCAAAATGTAATTAATTTT [GTGCAC_site9901]	10.065 ± 0.007
TATATTTTATAAAAAAGTACACATGAAAATGTATTT [XGTACX_site5889]	11.5 ± 1.1
TGTAGTCTGGAGAAACGTACACAGTATCTGGTAACA [XGTACX_site4938]	11.5 ± 1.2
AAAGGGGATATATGAACACACAAAAAAAAAATATAT [CACACA_site2896]	10.1 ± 0.33
TATTTATTACTATGTAAACACACATGCAATATATGT [CACACA_site8288]	9.84 ± 0.028
ATGCCCCATATAAACACACAAATAAAAAGAATATAC [CACACA_site7292]	10.1 ± 0.11
AAATATTTTTTTTCTACACACATACAAATATAGATT [CACACA_site7164]	10.095 ± 0.007
GTACTCTTCTCCAGACTGCACTATACGACTCGTACA [GTGCAC_site9770]	11 ± 0.57
ATATATATATATATATGTACTTATATATAATATAGA [XGTACX_site3488]	11.2 ± 0.79
ATTACATACACGCGCACACACAAAAAAAAAAAAAAA [CACACA_site1334]	10.6 ± 0.66
TGGTATGTTTTACAAAGTACCCATCGATTCTTATGT [XGTACX_site2822]	10.9 ± 0.46
AAAAAGTAGTAAAACAGTACAGTATTTATGCCTATT [XGTACX_site6434]	10.8 ± 0.42
AAAAAAAAAAAAAGTACACACTTTTGCGTACATGTA [CACACA_site7449]	12 ± 0.98
TATTTATTTATTTATTGTACATAAGTATATATTATA [XGTACX_site6566]	10.9 ± 0.64
GAACCACTAAAATGAGCATGCTCATATTTACATATA [TGCATGCA_site1033]	9.885 ± 0.007
AATATATTTTTCTACCGTACATAATAAAATATATAT [XGTACX_site1777]	10.7 ± 0.46
TAATATTTTTATTATTAGAATTGTATATGTTTAATA [CACACA_negctrl_site1833]	9.535 ± 0.064
CATATATCATAAATATGTACGAAATAAAAGAATCAT [XGTACX_site942]	10.8 ± 0.39
TTTTCTAAAATATTCATAATAAATCAAAAAAAAAAA [GTGCAC_negctrl_site320]	9.84 ± 0.33
ATAAAAGGAATATTTGCATGTGGTAGTACATAACAT [TGCATGCA_site978]	11.5 ± 0.87
TGCGTATTCTTATTAGGTACACATATTCGTGATAAT [XGTACX_site5681]	11.2 ± 0.88

Sequence	gcPBM binding intensity (ln)
TTTTCTTACTATTGTAGTACAATATTATATTCTTTT [XGTACX_site1925]	11.5 ± 0.7
TATAAATATGTATATACACACTTTTAATATTCATAA [CACACA_site7856]	9.825 ± 0.064
ATAGATGATATACGTAAACACACAAATAAAAAAAAT [CACACA_site9095]	10.3 ± 0.28
TTTATTTTTCATAATTGTACAAAAATAAATGGAAAC [XGTACX_site5144]	11.1 ± 0.81
TAATTTGAAAAATTGTGTACTCATAAAATAAATAAA [XGTACX_site2138]	11.5 ± 1.1
GATTTATATATATAAAATAATTGAATATTTTCTTTT [CACACA_negctrl_site801]	9.4 ± 0.38
ATAAAAAAATAAAACACACACATATAGATTATAGAT [CACACA_site7343]	9.91 ± 0.042
TACAAATATAGACACACACACATATATATATATATA [CACACA_site585]	10.2 ± 0.36
TTTATAATTCTTACAACACACAATGTACATTTATAT [CACACA_site1261]	11.1 ± 0.56
TATATGAAGCTATAGACACACATATAAAAATAGAAT [CACACA_site1313]	9.97 ± 0.11
AAATTAAAAAGAGCTTGTACAGATGTATACATAATA [XGTACX_site3882]	10.8 ± 0.47
AAGAGAAAAATATGGTTGCACTAAAAATATATATTT	10.2 ± 0.11
TACATACAGATATATACACACATATAAAATATAGAT [CACACA_site6319]	9.93 ± 0.14
ATTATATATAAATATACACACATATATAAAATACAT [CACACA_site5298]	9.985 ± 0.035
ATTCATATATTTATTGCATGCAAAGTAAAATAAATA [TGCATGCA_site307]	10.1 ± 0.44
GACATATTAGAAGGGTGTACATACTTTTAATCATTT [XGTACX_site1698]	11.3 ± 0.7
AATATTAAAATATAAACACACAAAATTCAATTATAT [CACACA_site5971]	9.65 ± 0.23
TAAAAAATTAATAAAGTGCATAAATATTACAATATT	9.76 ± 0.14
TTTTCTAAATATTATAGTACTCTTAATAATATTAAC [XGTACX_site4222]	11.1 ± 0.72
TTAACAAAATATAGCACACATAAATATATATTTATG [CACACA_site351]	10.3 ± 0.16
ACATAACTGATATATACACACAATACAAATATAGAT [CACACA_site7328]	10.04 ± 0.049
AAATGTGCATTATGTTGTACAGTCGAAATTTTTTTT [XGTACX_site3812]	11.2 ± 0.64
